A compilation of properties of binary mixtures (doi:10.1080/01932691.2021.1974876)
The densities may have been worked out from excess volumes.

Experiment: xn = mol fraction of the nth substance listed
Conditions: 100 kPa

In the case of CO + CC[n+]1ccn(C)c1.N#C[S-], the mass density (293.15 K, x2 = 0) is reported as 791 kg/m3, the mass density (303.15 K, x2 = 0) is reported as 782 kg/m3 and the mass density (308.15 K, x2 = 0) is reported as 777 kg/m3. For the same compound, the mass density (313.15 K, x2 = 0) was 772 kg/m3 and the mass density (323.15 K, x2 = 0) was 762 kg/m3.
With CC[n+]1ccn(C)c1.N#C[S-] + CO the mass density (293.15 K, x1 = 0.0988) was 911 kg/m3, the mass density (293.15 K, x1 = 0.1966) was 978 kg/m3 and the mass density (293.15 K, x1 = 0.3005) was 1026 kg/m3. For the same compound, the mass density (293.15 K, x1 = 0.3859) was 1049 kg/m3, the mass density (293.15 K, x1 = 0.5006) was 1073 kg/m3 and the mass density (293.15 K, x1 = 0.5972) was 1087 kg/m3. It also gave a mass density (293.15 K, x1 = 0.6996) of 1096 kg/m3, a mass density (293.15 K, x1 = 0.804) of 1105 kg/m3 and a mass density (293.15 K, x1 = 0.8997) of 1111 kg/m3. It also gave a mass density (293.15 K, x1 = 1) of 1116 kg/m3, a mass density (298.15 K, x1 = 0.0988) of 906 kg/m3 and a mass density (298.15 K, x1 = 0.1966) of 973 kg/m3. It also gave a mass density (298.15 K, x1 = 0.3005) of 1021 kg/m3, a mass density (298.15 K, x1 = 0.3859) of 1044 kg/m3 and a mass density (298.15 K, x1 = 0.5006) of 1068 kg/m3. It also gave a mass density (298.15 K, x1 = 0.6996) of 1093 kg/m3, a mass density (298.15 K, x1 = 0.804) of 1101 kg/m3 and a mass density (298.15 K, x1 = 0.8997) of 1107 kg/m3. It also gave a mass density (298.15 K, x1 = 1) of 1113 kg/m3, a mass density (303.15 K, x1 = 0.0988) of 900 kg/m3 and a mass density (303.15 K, x1 = 0.1966) of 967 kg/m3. It also gave a mass density (303.15 K, x1 = 0.3005) of 1016 kg/m3, a mass density (303.15 K, x1 = 0.5006) of 1064 kg/m3 and a mass density (303.15 K, x1 = 0.5972) of 1078 kg/m3. It also gave a mass density (303.15 K, x1 = 0.6996) of 1088 kg/m3, a mass density (303.15 K, x1 = 0.804) of 1098 kg/m3 and a mass density (303.15 K, x1 = 0.8997) of 1104 kg/m3. It also gave a mass density (308.15 K, x1 = 0.1966) of 962 kg/m3, a mass density (308.15 K, x1 = 0.3005) of 1011 kg/m3 and a mass density (308.15 K, x1 = 0.3859) of 1035 kg/m3. For the same compound, the mass density (308.15 K, x1 = 0.5972) was 1074 kg/m3, the mass density (308.15 K, x1 = 0.6996) was 1085 kg/m3 and the mass density (308.15 K, x1 = 0.804) was 1094 kg/m3. For the same compound, the mass density (308.15 K, x1 = 0.8997) was 1100 kg/m3, the mass density (313.15 K, x1 = 0.0988) was 889 kg/m3 and the mass density (313.15 K, x1 = 0.1966) was 957 kg/m3. It also gave a mass density (313.15 K, x1 = 0.3005) of 1006 kg/m3, a mass density (313.15 K, x1 = 0.3859) of 1031 kg/m3 and a mass density (313.15 K, x1 = 0.5006) of 1054 kg/m3. The mass density (313.15 K, x1 = 0.5972) was 1069 kg/m3, the mass density (313.15 K, x1 = 0.6996) was 1081 kg/m3 and the mass density (313.15 K, x1 = 0.804) was 1090 kg/m3. For the same compound, the mass density (313.15 K, x1 = 0.8997) was 1097 kg/m3, the mass density (313.15 K, x1 = 1) was 1103 kg/m3 and the mass density (318.15 K, x1 = 0.0988) was 884 kg/m3. It also gave a mass density (318.15 K, x1 = 0.1966) of 952 kg/m3, a mass density (318.15 K, x1 = 0.3005) of 1002 kg/m3 and a mass density (318.15 K, x1 = 0.3859) of 1026 kg/m3. The mass density (318.15 K, x1 = 0.5006) was 1050 kg/m3, the mass density (318.15 K, x1 = 0.5972) was 1065 kg/m3 and the mass density (318.15 K, x1 = 0.6996) was 1077 kg/m3. It also gave a mass density (318.15 K, x1 = 0.804) of 1087 kg/m3, a mass density (318.15 K, x1 = 0.8997) of 1093 kg/m3 and a mass density (318.15 K, x1 = 1) of 1100 kg/m3. The mass density (323.15 K, x1 = 0.0988) was 878 kg/m3, the mass density (323.15 K, x1 = 0.3859) was 1021 kg/m3 and the mass density (323.15 K, x1 = 0.5006) was 1045 kg/m3. It also gave a mass density (323.15 K, x1 = 0.5972) of 1060 kg/m3 and a mass density (323.15 K, x1 = 0.6996) of 1073 kg/m3.
